Assay [1] deals with T1, thioredoxin m2 (Trxm2), yeast two-hybrid fusion (Arabidopsis thaliana) (UniProt Q9SEU8).
T1 sequence: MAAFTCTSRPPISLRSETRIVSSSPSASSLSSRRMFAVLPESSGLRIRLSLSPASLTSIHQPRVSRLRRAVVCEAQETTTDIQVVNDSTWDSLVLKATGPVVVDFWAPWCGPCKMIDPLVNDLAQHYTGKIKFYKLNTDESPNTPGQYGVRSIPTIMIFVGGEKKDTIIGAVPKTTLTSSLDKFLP
As to the kind of experiment: two-hybrid; yeast strain SMY3, drop-out series of BD–AD combinations; read-out: Trxm2 autoactivation (with the empty vector) is revoked by an interacting partner.

The target of assay [2] is T2, Trxm2 with N-terminal split YFP (Arabidopsis thaliana) (UniProt Q9SEU8).
T2 sequence: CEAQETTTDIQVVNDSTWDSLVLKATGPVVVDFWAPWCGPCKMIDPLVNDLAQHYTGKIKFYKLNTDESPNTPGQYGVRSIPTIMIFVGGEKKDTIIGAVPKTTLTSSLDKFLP
The experiment in a line: split reporter; BiFC of split YFP fusion constructs in Arabidopsis leaf protoplasts, 48 h post-transfection; YFP halves both C-terminal or both N-terminal.

Assay [3] concerns the target T3, Trxm2 with C-terminal split YFP (Arabidopsis thaliana) (UniProt Q9SEU8).
T3 sequence: T2 sequence
The assay is described as above.

Drawing on article PMC11103113, “Evidence for dual targeting control of Arabidopsis 6-phosphogluconate dehydrogenase isoforms by N-terminal phosphorylation” (Journal of Experimental Botany, 2024), this text covers binding for eleven molecules.

These are yes or no findings as the source states them, for the method shown. For some assays here: In cells and extracts the contact can be indirect. Some results given as binding are weak or reduced against the parent protein; the word gives no strength. Sequences can lack the tags named with a protein.

B1: 6-phosphogluconate dehydrogenase 3 (PGD3), full length, yeast two-hybrid fusion (enzyme, UniProt Q9FFR3 1-487)
chain: MESVALSRIGLAGLAVMGQNLALNIADKGFPISVYNRTTSKVDETLDRASNEGKLPVAGQYSPRDFVLSIQRPRSVIILVKAGAPVDQTISALSEYMEPGDCIIDGGNEWYQNTERRIVEAEKKGLLYLGMGVSGGEEGARNGPSLMPGGSFTAYNNVKDILEKVAAQVEDGPCVTYIGEGGSGNFVKMVHNGIEYGDMQLISEAYDVLKNVGGLSNDELAEIFTEWNRGELESFLVEITSDIFRVKDDYGDGELVDKILDKTGMKGTGKWTVQQAAELSVAAPTIAASLDCRYLSGLKDERENAAKVLEEAGLKEDIGSASRGVDKKRLIDDVRQALYASKICSYAQGMNLLRAKSLEKGWDLNLGEMARIWKGGCIIRAVFLDRIKKAYQRNPNLASLVVDPDFAKEMVQRQAAWRRVVGLAISAGISTPGMCASLAYFDTYRRARLPANLVQAQRDLFGAHTYERTDRPGAYHTEWTKLARKSQ
In the case of B1, the binding entry in assay [1] was “binds”.

B2: PGD3 with N-terminal split YFP (enzyme, UniProt Q9FFR3 1-487)
chain: B1 chain
Take B2: the binding entry in assay [2] is “binds”.

B3: PGD3 with C-terminal split YFP (enzyme, UniProt Q9FFR3 1-487)
chain: B1 chain
For B3, the binding result in assay [3] is on record as “binds”.

B4: split YFP–PGD2_Δ15 (N-terminal split YFP) (domain or fragment, UniProt Q9FWA3 16-486)
chain: MGQNLALNIAEKGFPISVYNRTTSKVDETVERAKKEGNLPLYGFHDPESFVKSIQKPRVIIMLVKAGSPVDQTIKTLSAYLEKGDCIVDGGNEWYENTERREKAVAENGFLYLGMGVSGGEEGARNGPSMMPGGSYEAYKNIEDIVLKVAAQVRDSGPCVTYIGKGGSGNFVKMVHNGIEYGDMQLIAEAYDVLKSVGKLSNEELHSVFSDWNKGELESFLVEITADIFGIKDDKGDGHLVDKVLDKTGMKGTGKWTVQQAAELSVPAPTIESSLDARFLSGLKDERVQAAKVFKAGGFGDILTDQKVDKKQLVDDVRKALYASKICSYAQGMNLIRAKSIEKGWGLKLGELARIWKGGCIIRAIFLDRIKQAYDRNAELANLLVDPEFAKEIIERQSAWRRVVCLAINSGISTPGMSASLAYFDSYRRERLPANLVQAQRDYFGAHTYERTDVEGSFHTEWFKIARQSKI
For B4, the binding result in assay [2] is listed as “binds”.

B5: PGD2_Δ15 (starting with the second Met at position 16), yeast two-hybrid fusion (domain or fragment, UniProt Q9FWA3 16-486)
chain: B4 chain
With B5, the binding entry in assay [1] is “binds”.

B6: N-terminally truncated PGD3 (starting with the second Met at position 17), yeast two-hybrid fusion (domain or fragment, UniProt Q9FFR3 17-487)
chain: MGQNLALNIADKGFPISVYNRTTSKVDETLDRASNEGKLPVAGQYSPRDFVLSIQRPRSVIILVKAGAPVDQTISALSEYMEPGDCIIDGGNEWYQNTERRIVEAEKKGLLYLGMGVSGGEEGARNGPSLMPGGSFTAYNNVKDILEKVAAQVEDGPCVTYIGEGGSGNFVKMVHNGIEYGDMQLISEAYDVLKNVGGLSNDELAEIFTEWNRGELESFLVEITSDIFRVKDDYGDGELVDKILDKTGMKGTGKWTVQQAAELSVAAPTIAASLDCRYLSGLKDERENAAKVLEEAGLKEDIGSASRGVDKKRLIDDVRQALYASKICSYAQGMNLLRAKSLEKGWDLNLGEMARIWKGGCIIRAVFLDRIKKAYQRNPNLASLVVDPDFAKEMVQRQAAWRRVVGLAISAGISTPGMCASLAYFDTYRRARLPANLVQAQRDLFGAHTYERTDRPGAYHTEWTKLARKSQ
In the case of B6, the binding result in assay [1] is recorded as “no binding”.

B7: 6-phosphogluconate dehydrogenase 1 (PGD1), full length, yeast two-hybrid fusion (enzyme, UniProt Q9SH69 1-487)
chain: MESAALSRIGLAGLAVMGQNLALNIAEKGFPISVYNRTTSKVDETLDRAAVEGNLPVSGQYSPRDFVLSIQRPRSLIILVKAGAPVDQTIDAFSEYMEPGDCIIDGGNEWYQNTERRISEAEQKGLLYLGMGVSGGEEGARNGPSLMPGGSFQAYDNIKDILEKVAAQVEDGPCVTYIGEGGSGNFVKMVHNGIEYGDMQLISEAYDVLKNVGGLSNEELAEIFTEWNSGELESFLVEITSDIFRVKDEFGDGELVDKILDKTGMKGTGKWTVQQAAELSVAAPTIAASLDCRYLSGLKDERENAAKVLREAGLKEEIGSASSGIDKKRLVDDVRQALYASKICSYAQGMNLLRAKSLEKSWNLNFGELARIWKGGCIIRAVFLDRIKKAYQRNPDLASLVVDPEFAKEMVQRQAAWRRVVGLAVSAGISTPGMCASLAYFDTYRRARLPANLVQAQRDLFGAHTYERTDRPGAYHTEWTKLARKNH
With B7, the binding result in assay [1] was “binds”.

B8: PGD1 with C-terminal split YFP (enzyme, UniProt Q9SH69 1-487)
chain: B7 chain
For the molecule B8, the binding result in assay [3] was “binds”.

B9: PGD1 with N-terminal split YFP (enzyme, UniProt Q9SH69 1-487)
chain: B7 chain
Consider B9, for which the binding result in assay [2] was “binds”.

B10: 6-phosphogluconate dehydrogenase 2 (PGD2), full length, yeast two-hybrid fusion (enzyme, UniProt Q9FWA3 1-486)
chain: MAVQPTRIGLAGLAVMGQNLALNIAEKGFPISVYNRTTSKVDETVERAKKEGNLPLYGFHDPESFVKSIQKPRVIIMLVKAGSPVDQTIKTLSAYLEKGDCIVDGGNEWYENTERREKAVAENGFLYLGMGVSGGEEGARNGPSMMPGGSYEAYKNIEDIVLKVAAQVRDSGPCVTYIGKGGSGNFVKMVHNGIEYGDMQLIAEAYDVLKSVGKLSNEELHSVFSDWNKGELESFLVEITADIFGIKDDKGDGHLVDKVLDKTGMKGTGKWTVQQAAELSVPAPTIESSLDARFLSGLKDERVQAAKVFKAGGFGDILTDQKVDKKQLVDDVRKALYASKICSYAQGMNLIRAKSIEKGWGLKLGELARIWKGGCIIRAIFLDRIKQAYDRNAELANLLVDPEFAKEIIERQSAWRRVVCLAINSGISTPGMSASLAYFDSYRRERLPANLVQAQRDYFGAHTYERTDVEGSFHTEWFKIARQSKI
Turning to B10, the binding result in assay [1] was “binds”.

B11: N-terminally truncated PGD1 (starting with the second Met at position 17), yeast two-hybrid fusion (domain or fragment, UniProt Q9SH69 17-487)
chain: MGQNLALNIAEKGFPISVYNRTTSKVDETLDRAAVEGNLPVSGQYSPRDFVLSIQRPRSLIILVKAGAPVDQTIDAFSEYMEPGDCIIDGGNEWYQNTERRISEAEQKGLLYLGMGVSGGEEGARNGPSLMPGGSFQAYDNIKDILEKVAAQVEDGPCVTYIGEGGSGNFVKMVHNGIEYGDMQLISEAYDVLKNVGGLSNEELAEIFTEWNSGELESFLVEITSDIFRVKDEFGDGELVDKILDKTGMKGTGKWTVQQAAELSVAAPTIAASLDCRYLSGLKDERENAAKVLREAGLKEEIGSASSGIDKKRLVDDVRQALYASKICSYAQGMNLLRAKSLEKSWNLNFGELARIWKGGCIIRAVFLDRIKKAYQRNPDLASLVVDPEFAKEMVQRQAAWRRVVGLAVSAGISTPGMCASLAYFDTYRRARLPANLVQAQRDLFGAHTYERTDRPGAYHTEWTKLARKNH
Turning to B11, the binding result in assay [1] is recorded as “no binding”.
